{"source": "PubChem BioAssay AID2147", "about": "(National Center for Advancing Translational Sciences (NCATS), 2009)", "note": "Out of some 230,000 compounds screened, about 3,600 (1.6%) were called active. This list was built around the results that the source calls inconclusive (neither active nor inactive); the mix of calls is not that of the screen. The call rests on the fitted dose curve; in most records, active means well fitted inhibition curve with a large enough effect (not every such curve was filed as active); inconclusive means small, poorly fitted or top-dose-only effect, or another doubt; inactive means no such curve, though single readings can be large or run the other way. Potencies beside an inconclusive call are fits to weak or partial responses and may not hold up. Further: nearly all actives have a fitted effect of over 50% in size. Potency means the concentration at half of the fitted maximal effect; tags describe the fitted curve by direction and shape.", "data": [{"biological_target": "Lysine-specific demethylase 4E (Homo sapiens) (UniProt B2RXH2)", "sequence (B2RXH2 whole entry, looked up, the tested form may be a part)": "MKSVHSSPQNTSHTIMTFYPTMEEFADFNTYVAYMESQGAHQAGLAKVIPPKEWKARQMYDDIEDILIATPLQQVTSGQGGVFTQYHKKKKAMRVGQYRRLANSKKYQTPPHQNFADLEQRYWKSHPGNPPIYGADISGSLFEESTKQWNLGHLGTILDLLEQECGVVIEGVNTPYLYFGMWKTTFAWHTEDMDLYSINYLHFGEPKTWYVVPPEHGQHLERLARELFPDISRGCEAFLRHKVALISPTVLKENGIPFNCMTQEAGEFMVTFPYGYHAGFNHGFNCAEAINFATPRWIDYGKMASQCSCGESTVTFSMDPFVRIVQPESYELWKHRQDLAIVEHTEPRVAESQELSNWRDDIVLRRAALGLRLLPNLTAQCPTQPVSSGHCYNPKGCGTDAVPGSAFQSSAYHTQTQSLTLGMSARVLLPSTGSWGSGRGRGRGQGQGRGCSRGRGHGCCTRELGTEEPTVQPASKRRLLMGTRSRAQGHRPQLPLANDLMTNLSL", "assay": "qHTS Assay for Inhibitors of Human Jumonji Domain Containing 2E (JMJD2E)", "details": "JMJD2E catalytic domain, FDH-coupled NADH fluorescence (FDH is formaldehyde dehydrogenase); series mostly up to 57.1 µM", "values": [{"smiles": "CCOC(=O)C1CCN(C(=O)/C=C/c2ccccc2OC)CC1", "Potency": "inconclusive: 39.8 µM [inhibitor, single point]"}, {"smiles": "Cc1cc(C(F)F)nn1CC(=O)NCc1ccco1", "Potency": "inconclusive: 35.5 µM [inhibitor, single point]"}, {"smiles": "Cc1oc(-c2ccc(Cl)cc2)cc1-c1nn2c(-c3ccco3)nnc2s1", "Potency": "inactive"}, {"smiles": "CCn1c(SC(=O)NC2CCCCC2)nnc1-c1cccs1", "Potency": "inconclusive: 31.6 µM [inhibitor, partial curve]"}, {"smiles": "CCn1c(-c2cc(-c3cccc(OC)c3)nc3ccccc23)n[nH]c1=S", "Potency": "inconclusive: 39.8 µM [inhibitor, single point]"}, {"smiles": "O=C1NCCCC1C(=O)N/N=C/c1ccccc1[N+](=O)[O-]", "note": "(stereo unspecified)", "Potency": "inactive"}, {"smiles": "O=c1[nH][nH]c(=O)c2c(NS(=O)(=O)c3ccccc3)cccc12", "Potency": "inconclusive: 39.8 µM [inhibitor, single point]"}, {"smiles": "CSc1ccccc1NC(=O)CN(C)CC(=O)Nc1c(F)cccc1F", "Potency": "inconclusive: 31.6 µM [inhibitor, single point]"}, {"smiles": "CCOC(=O)c1ccc(NC(=S)N(CCCN2CCN(CC)CC2)Cc2cccs2)cc1", "Potency": "inactive"}, {"smiles": "COc1ccc(C(=O)O)cc1S(=O)(=O)NCCc1ccccn1", "Potency": "inconclusive: 28.2 µM [inhibitor, single point]"}, {"smiles": "O=C(CSc1nnnn1-c1cccc2ccccc12)Nc1ccc(N2CCOCC2)c(Cl)c1", "Potency": "inactive"}, {"smiles": "O=C1C(=C(c2ccccc2)c2ccccc2)Nc2ccccc21", "Potency": "inactive"}, {"smiles": "NC(=O)c1ccc(NC(=O)COC(=O)/C=C/c2cn(-c3ccccc3)nc2-c2cccnc2)cc1", "Potency": "inconclusive: 28.2 µM [inhibitor, partial curve]"}, {"smiles": "O=C(CSc1nnc(NC(=O)c2ccco2)s1)Nc1ccc2c(c1)OCCO2", "Potency": "inconclusive: 39.8 µM [inhibitor, single point]"}, {"smiles": "COc1oc(-c2ccc(Cl)cc2)nc1C(F)(F)F", "Potency": "inconclusive: 22.4 µM [inhibitor, single point]"}, {"smiles": "O=C1CN(CC(=O)Nc2ccc(SC(F)F)cc2)CCN1", "Potency": "inactive"}, {"smiles": "N#CC1=C(N)C(C#N)(C#N)C(c2cccnc2)C2CN(C(=O)OCc3ccccc3)CC=C12", "note": "(stereo unspecified)", "Potency": "inconclusive: 11.2 µM [inhibitor, partial curve]"}, {"smiles": "CCOc1ccc(/C=C2/SC(=S)N(n3c(C)ccc3C)C2=O)cc1", "Potency": "inconclusive: 0.0071 µM [inhibitor, full curve, poor fit]"}, {"smiles": "CC(Sc1nc2cc([N+](=O)[O-])ccc2n1-c1cccc(C(F)(F)F)c1)C(=O)NC(N)=O", "note": "(stereo unspecified)", "Potency": "inactive"}, {"smiles": "OCCNc1ncnc2c1sc1nc(N3CCOCC3)c3c(c12)CCC3", "Potency": "inconclusive: 28.2 µM [inhibitor, partial curve]"}, {"smiles": "O=C(Nc1ccc(Cl)cc1)Nc1nc(-c2sccc2Br)cs1", "Potency": "inactive"}, {"smiles": "Cc1ccccc1C(=O)Nc1ccc(S(=O)(=O)Nc2onc(C)c2C)cc1", "Potency": "inconclusive: 35.5 µM [inhibitor, single point]"}, {"smiles": "CC(C)C(=O)Nc1ccc(S(=O)(=O)Nc2ccccn2)cc1", "Potency": "inconclusive: 39.8 µM [inhibitor, single point]"}, {"smiles": "COc1ccc(NC(=S)NNc2ccc([N+](=O)[O-])cc2S(=O)(=O)Nc2ccc(C)cc2C)cc1", "Potency": "inconclusive: 39.8 µM [inhibitor, single point]"}, {"smiles": "O=C(Nc1cccc(O)c1)N1CCOCC1", "Potency": "inactive"}, {"smiles": "Cc1cc(C)n(-c2nc(Nc3ccccc3C)nc(-n3nc(C)cc3C)n2)n1", "Potency": "inactive"}, {"smiles": "CC1CCC2(CC1)NC(=S)N(C(C)(C)C)N2", "note": "(stereo unspecified)", "Potency": "inconclusive: 39.8 µM [inhibitor, single point]"}, {"smiles": "Cc1cc(NC(=O)CSc2ncccc2C(=O)O)no1", "Potency": "inconclusive: 39.8 µM [inhibitor, single point]"}, {"smiles": "CCN(CC)CCCNC(=O)c1ccc(N2CCCCC2)c(NS(=O)(=O)c2ccc(C)cc2)c1", "Potency": "inconclusive: 28.2 µM [inhibitor, single point]"}, {"smiles": "CC(=O)Nc1ccc(S(=O)(=O)N2CCN(Cc3cccc([N+](=O)[O-])c3)CC2)cc1", "Potency": "inconclusive: 25.1 µM [inhibitor, single point]"}, {"smiles": "COc1ccc(S(=O)(=O)CCC(=O)O)cc1", "Potency": "inactive"}, {"smiles": "Cc1onc(-c2ccccc2Cl)c1C(=O)NCc1ccco1", "Potency": "inconclusive: 14.1 µM [inhibitor, partial curve]"}, {"smiles": "O=C(CN1CCCCC1)Nc1ccc(N2CCCCCC2)cc1", "Potency": "inconclusive: 35.5 µM [inhibitor, single point]"}, {"smiles": "Cc1ccc(C(=O)Nc2cccc(C(F)(F)F)c2)cc1NC(=O)c1nccn1C", "Potency": "inconclusive: 35.5 µM [inhibitor, single point]"}, {"smiles": "COc1ccc2ccccc2c1/C=N/NC(=O)c1cccc(Br)c1", "Potency": "inconclusive: 39.8 µM [inhibitor, single point]"}, {"smiles": "O=c1c(O)c(Br)ccc2c(Br)c(O)c(O)c(O)c12", "Potency": "active: 7.08 µM"}, {"smiles": "COC(=O)c1ccccc1C[C@]1(C(=O)OC)C=C[C@H](C)[C@@H](c2ccccc2)N1C(=O)C(F)(F)F", "Potency": "inactive"}, {"smiles": "COc1ccc2c(c1)CC/C(=C\\Nc1ccc3c(c1)OCO3)C2=O", "Potency": "inconclusive: 2 µM [inhibitor, partial curve, poor fit]"}, {"smiles": "COC(=O)c1cc(OC)c(OC)cc1NC(=O)c1cc(C(C)(C)C)oc1C", "Potency": "inconclusive: 35.5 µM [inhibitor, single point]"}, {"smiles": "CCOC(=O)c1c(C)[nH]c(C(=O)COC(=O)/C=C/c2ccc(OCC#N)c(OC)c2)c1C", "Potency": "inactive"}, {"smiles": "CC(NC(=O)Nc1ccc(O)cc1)(C(F)(F)F)C(F)(F)F", "Potency": "inconclusive: 20 µM [inhibitor, partial curve]"}, {"smiles": "C[C@@H](N)C(=O)O", "Potency": "inactive"}, {"smiles": "C1CCC(C(C[C@@H]2CCCCN2)C2CCCCC2)CC1", "Potency": "inactive"}, {"smiles": "Oc1ccc(N2CCN(C(c3ccccn3)c3nnnn3C3CCCC3)CC2)cc1", "note": "(stereo unspecified)", "Potency": "inconclusive: 22.4 µM [inhibitor, single point]"}, {"smiles": "Cc1ccc(-c2ccc(=O)n(CC(=O)NCCN(C)C)n2)cc1", "Potency": "inconclusive: 28.2 µM [inhibitor, single point]"}, {"smiles": "Cc1cccc(C(=O)NC2CC3CCCC(C2)N3S(=O)(=O)c2ccccc2)c1", "note": "(stereo unspecified)", "Potency": "inactive"}]}]}
